Consider 57 sequences from the supplement of paper PMC11417369.

The other results are listed elsewhere or left out.

In the assay the test system is PF3D7_0420300 AP2 domain 1 (GST-tagged). The assay can be described thus: gcPBM binding intensity (ln(normalized median fluorescence intensity)); higher = stronger DNA binding. The method in brief: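 Using an Agilent 4 × 180k array, primer-extended double-stranded 36-bp intergenic genomic probes and negative controls were exposed for 1 h to GST-fused P. falciparum DNA-binding domains expressed in E. coli. Binding was carried out in 1× PBS with 1% milk, 0.2 mg/ml BSA, 0.5% salmon testes DNA and 0.03% Triton X-100, and protein was detected with Alexa488 anti-GST antibody and a 488 nm scan. Binding intensity is the highest Masliner-normalised natural-log median intensity across replicate spots of either probe orientation.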
As to “ATTAAAAAAAATATATATGTATAAAACAAGCAAAAT [XGTACX_negctrl_site474]”, the “gcPBM binding intensity (ln)” value was found to be 9.69.

As for “AACATTATATATTGCAGTACTCCCATATGTTGATAA [XGTACX_site3119]”, the “gcPBM binding intensity (ln)” value worked out at 9.26.

As to “ATATATATATATATATGTACACATAAAAAGAAAGAA [XGTACX_site1603]”, the “gcPBM binding intensity (ln)” value is 9.58.

Regarding “TTTAGTTGTGAGAATTGTACATATTTTCCTTTTACC [XGTACX_site7291]”, the “gcPBM binding intensity (ln)” value stood at 9.2.

For the sequence “TATATACCTATATACACACACATATATTATAGATAT [CACACA_site6266]”, the “gcPBM binding intensity (ln)” value worked out at 9.82.

Consider “TATATATATGAACAATGTACGTATAATATTTTTATT [XGTACX_site7561]”, for which the “gcPBM binding intensity (ln)” value amounted to 9.25.

For “GATCTATACTATAATACACACATTTGATGAATGTAA [CACACA_site6163]”, the “gcPBM binding intensity (ln)” value came out at 9.34.

Turning to “AAAAAAATTAAAAATTAAAATTAAAAATAATATATA [GTGCAC_negctrl_site466]”, the “gcPBM binding intensity (ln)” value was determined as 8.97.

With “AATGTATAAATCCATACACACATAAATTTTAATAAT [CACACA_site2363]”, the “gcPBM binding intensity (ln)” value turned out to be 9.53.

With TAATTTCTTTAGGGGGTGCTTTTATAGTTTTTATTA, the “gcPBM binding intensity (ln)” value came out at 10.1.

Turning to “TTCATAAAATGTGTCTGTACGTAAATGTATTACACT [XGTACX_site3179]”, the “gcPBM binding intensity (ln)” value was 9.22.

Regarding “CTGTCTGCAGATATGGTGCATTTGTAAGATCTTACA [GTGCAC_site9870]”, the “gcPBM binding intensity (ln)” value was 9.13.

Consider “TTTATATTTATGATGGGTACACAAAATTTTACCCAT [XGTACX_site1504]”, for which the “gcPBM binding intensity (ln)” value turned out to be 8.93.

Consider “ATATATATATATATATGTACATATGTTTGTTTCCGC [XGTACX_site5167]”, for which the “gcPBM binding intensity (ln)” value came to 9.53.

In the case of “TTTTTTTTCATTTTATGTACACATAATTTAATATAT [XGTACX_site5768]”, the “gcPBM binding intensity (ln)” value was 9.34.

With “CATACATACATACATACATGCATACATACATACATA [TGCATGCA_site218]”, the “gcPBM binding intensity (ln)” value worked out at 9.45.

For “CATAATTTAAAAAAGGTGCAAAATGGATAATATATA [GTGCAC_site9657]”, the “gcPBM binding intensity (ln)” value came out at 9.39.

Regarding “AAAAAGTGACTCCTTACACACTTTACATAATTTAGG [CACACA_site8176]”, the “gcPBM binding intensity (ln)” value amounted to 9.42.

“ATATACATATATATATGTACTTATTTATTTATTTAT [XGTACX_site2532]”: the “gcPBM binding intensity (ln)” value was determined as 9.36.

Regarding “GCAATTTTTTTTAAGAGTACTAATATATTATAGTGG [XGTACX_site7316]”, the “gcPBM binding intensity (ln)” value is 8.95.

On to “TTTTTTTAATAGTGTGCACACAATATACAGAAAAAA [CACACA_site8399]”, for which the “gcPBM binding intensity (ln)” value came to 9.51.

For the sequence “TAATTATATATATACACACACATACAGACAAATAAA [CACACA_site3412]”, the “gcPBM binding intensity (ln)” value was found to be 10.1.

In the case of “GAAATTTGTTATTGCACACAAATTTTTCTTTTTTTA [CACACA_site2339]”, the “gcPBM binding intensity (ln)” value amounted to 9.34.

Consider “TCCTTTTTGAAATGTTGTACTTTTTTTATCTTTCAT [XGTACX_site953]”, for which the “gcPBM binding intensity (ln)” value was determined as 9.48.

As for “TACCATATTTCTTCAAGTACGCATTATGTTAAAAAG [XGTACX_site345]”, the “gcPBM binding intensity (ln)” value was 9.06.

In the case of “TACATATATTTTTATACATGCATAACTTAGGACTTT [TGCATGCA_site113]”, the “gcPBM binding intensity (ln)” value was determined as 9.05.

On to “ATATTTATATATATCATACACACTAATATGTATATT [CACACA_site3409]”, for which the “gcPBM binding intensity (ln)” value was 9.39.

Turning to “ATATATATATATAATTGTACATATAATATAATATTA [XGTACX_site5216]”, the “gcPBM binding intensity (ln)” value amounted to 9.14.

For “AACACATGCTTGGTCACACACGTATGCATATTTAAA [CACACA_site5206]”, the “gcPBM binding intensity (ln)” value worked out at 9.52.

Turning to “AATATGTTATAAATATGTTATAAATAATAAATAAAT [GTGCAC_negctrl_site135]”, the “gcPBM binding intensity (ln)” value came to 9.17.

Turning to “ATATATATTATATATAGTACTTTTTTGCGCAAATAT [XGTACX_site6849]”, the “gcPBM binding intensity (ln)” value is 9.15.

For the sequence “TAAAAAAAAAAAAAAAGTACACACATACATATAAAT [XGTACX_site3752]”, the “gcPBM binding intensity (ln)” value stood at 9.81.

Regarding “ATTTTTTTTTTTTTATGTACATATAGGTGCAAATCA [XGTACX_site6748]”, the “gcPBM binding intensity (ln)” value came out at 8.95.

Consider “ACAATGTCATTTGCTAGTACGCATATTGGTTGTAAA [XGTACX_site8924]”, for which the “gcPBM binding intensity (ln)” value worked out at 9.15.

As for “TATTTTTTTTTTTTTTTTTTTTTAAAACATATCAAT [CACACA_negctrl_site925]”, the “gcPBM binding intensity (ln)” value stood at 8.93.

On to “ATTATGTGTCCACATGTAAGCTATCTTACTTATATA [CACACA_negctrl_site1227]”, for which the “gcPBM binding intensity (ln)” value worked out at 9.29.

With “CATATTTGTGGACACACACACATATTTATATATATA [CACACA_site5887]”, the “gcPBM binding intensity (ln)” value turned out to be 9.75.

Regarding “ATAGTTACACAATGGTGTACAAGTCAATATATTTCT [XGTACX_site4614]”, the “gcPBM binding intensity (ln)” value was 9.19.

Turning to “TACAAAAAAATAAAAAAAATTAAATAAATAAATATA [CACACA_negctrl_site45]”, the “gcPBM binding intensity (ln)” value is 9.06.

Take “AAAAAAAAAAAAAAAAAAAACGAAAAACATCAAAGA [TGCATGCA_negctrl_site78]”: the “gcPBM binding intensity (ln)” value stood at 9.4.

Turning to “TATCCTTATATTTGCACACACACACTAGAAAATGAA [CACACA_site4714]”, the “gcPBM binding intensity (ln)” value was determined as 10.

As for “ACTAAAAAATATATATGTACATAATAATATATTATT [XGTACX_site1260]”, the “gcPBM binding intensity (ln)” value was 9.21.

“ATTTATACTTATGTATGTACATATATACATATGTAT [XGTACX_site3979]”: the “gcPBM binding intensity (ln)” value was 9.24.

With ATAATAAAATAACTAGTGCATATTCAAAGGATTCAG, the “gcPBM binding intensity (ln)” value amounted to 9.44.

“ATTTTTATTCAGTTCACACACGCTTTAATATTATAT [CACACA_site3465]”: the “gcPBM binding intensity (ln)” value was determined as 9.77.

Take “ATATATATTTAACAATGTACTTATTCAGAGAATAAT [XGTACX_site574]”: the “gcPBM binding intensity (ln)” value was found to be 8.99.

Take “AAAATATTTTTATAATGTACATATAGTTGTATTTGT [XGTACX_site8724]”: the “gcPBM binding intensity (ln)” value is 9.33.

In the case of “AAGTTGAAATAATGTGCACACATTTTTTTTTTTTTT [CACACA_site3368]”, the “gcPBM binding intensity (ln)” value stood at 9.25.

As for “CCCTTAATATAAAGCACACATATATATAATATATAT [CACACA_site4439]”, the “gcPBM binding intensity (ln)” value came out at 9.33.

As for “ATAATAAATAAAATAACACACATATATAAATATATA [CACACA_site170]”, the “gcPBM binding intensity (ln)” value is 9.65.

Consider “ATTAATAAAAAATTTTAAAAAATAAATAAAATAAAA [TGCATGCA_negctrl_site113]”, for which the “gcPBM binding intensity (ln)” value was found to be 8.83.

Consider “GACACAAAAAAATAATAATAATAATAATAATAAATA [XGTACX_negctrl_site145]”, for which the “gcPBM binding intensity (ln)” value came out at 9.18.

Regarding “AATATAAATACTCCTACACACATATATATATATATA [CACACA_site3010]”, the “gcPBM binding intensity (ln)” value is 9.61.

On to “ACAAATACAAAAAAAGGTACACACATAATATATTTA [XGTACX_site5515]”, for which the “gcPBM binding intensity (ln)” value is 9.88.

On to “TTTGTTTTTAATTTCGCACACACCTTGTGGAAAAAA [CACACA_site577]”, for which the “gcPBM binding intensity (ln)” value amounted to 9.26.

In the case of “AAATATTTTATACTTGCACACAAAATATATTAAAAT [CACACA_site8606]”, the “gcPBM binding intensity (ln)” value is 9.32.

Turning to “TTCTTATAAATATACACACACAAAATATCTACAATG [CACACA_site6487]”, the “gcPBM binding intensity (ln)” value was 9.82.
